PubChem BioAssay AID588501 (NMMLSC, 2011)
Among all 360,000 compounds or so, about 420 (0.12%) were called active. Inconclusive results, whose numbers are uncertain, are shown with a selection of clear calls. No stated cut-off is given here; in the data, active means inhibition above about 30%; inconclusive means no clear call, values can overlap the other calls; inactive means below that.

The compounds below were run against Lethal factor (Bacillus anthracis) (UniProt P15917) (assay: anthrax lethal factor cleavage blockers – biochemical, multiplex microsphere, MLPCN library, primary screen (AID 588501; further: plate controls were buffer without enzyme for full effect and enzyme alone for no effect)). Conditions: multiplex microsphere protease cleavage assay, LF; at 10 µM; active compounds read high.
Chain of UniProt P15917 (P15917 whole entry, looked up): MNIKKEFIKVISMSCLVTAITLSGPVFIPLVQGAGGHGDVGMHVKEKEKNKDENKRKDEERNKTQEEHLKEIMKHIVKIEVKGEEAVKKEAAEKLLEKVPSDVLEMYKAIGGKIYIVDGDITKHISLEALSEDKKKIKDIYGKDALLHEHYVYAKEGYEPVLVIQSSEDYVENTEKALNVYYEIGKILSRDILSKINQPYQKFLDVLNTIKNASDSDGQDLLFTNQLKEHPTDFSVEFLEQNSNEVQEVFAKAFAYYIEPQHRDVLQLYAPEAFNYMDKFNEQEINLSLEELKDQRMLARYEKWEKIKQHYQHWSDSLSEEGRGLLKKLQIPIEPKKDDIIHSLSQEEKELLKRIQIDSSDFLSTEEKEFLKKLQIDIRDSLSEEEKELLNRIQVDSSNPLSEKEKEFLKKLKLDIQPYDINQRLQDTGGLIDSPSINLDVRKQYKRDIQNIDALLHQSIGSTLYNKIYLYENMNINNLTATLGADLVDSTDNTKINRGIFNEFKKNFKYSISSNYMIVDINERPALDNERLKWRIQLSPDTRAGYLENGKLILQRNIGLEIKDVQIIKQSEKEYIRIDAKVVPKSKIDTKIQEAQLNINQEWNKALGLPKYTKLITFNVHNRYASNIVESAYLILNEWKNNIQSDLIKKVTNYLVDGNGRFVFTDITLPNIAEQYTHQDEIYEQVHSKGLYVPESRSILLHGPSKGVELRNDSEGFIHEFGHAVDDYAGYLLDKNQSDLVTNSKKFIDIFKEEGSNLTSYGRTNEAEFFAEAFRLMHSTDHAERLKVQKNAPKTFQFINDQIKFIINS

Compound	inhibition
CC(=O)Nc1nc2[nH]ccc2c(=O)[nH]1	inactive: 2.3%
Cc1cc(C(=O)N2CCc3ccccc3C2)c(C)o1	inconclusive: -0.7%
O=C(CCNS(=O)(=O)c1ccc(Br)cc1)NCCCSc1ccccc1	inactive: -4.9%
Nc1nnc(CC(=O)N/N=C/c2ccc(-c3ccc(F)cc3)o2)s1	inconclusive: 2.9%
N/C(=N\N=C\c1cccc([N+](=O)[O-])c1)c1nonc1N	inconclusive: -2.5%
Cc1ccc(CNc2nc(N)c([N+](=O)[O-])c(NCc3ccccc3)n2)cc1	inactive: 0.6%
Cn1cnc([N+](=O)[O-])c1NCc1ccccc1	inconclusive: 10.8%
COC(=O)c1c(NC(=O)CN2CCN(Cc3ccc4c(c3)OCO4)CC2)sc(C)c1C	inactive: 13.4%
CCn1nc(C(=O)NCCc2ccc(S(N)(=O)=O)cc2)c2ccccc2c1=O	inconclusive: -0.8%
CCn1nnnc1SCC(=O)N1CCCCC1	inconclusive: -5.6%
CN1/C(=C/C=C/c2n(C)c3cc([N+](=O)[O-])c([N+](=O)[O-])cc3[n+]2C)C(C)(C)c2ccccc21	inconclusive: -57.6%
O=C(O)CC1(CC(=O)Nc2ccc3sccc3c2)CCCCC1	inconclusive: -13.9%
CC(C)C[C@H]1CNC(=O)C(=O)N1C[C@H](C)NC(=O)Cc1ccccc1	inactive: -13.1%
Cc1cc2oc(=O)cc(CN3CCCc4ccccc43)c2cc1C	inconclusive: 12.6%
CN1CCN(NC(=S)NC2CCCC2)CC1	inactive: -1.3%
O=C(CCNC(=O)c1ccccc1Cl)Nc1cccc(S(=O)(=O)N2CCCCC2)c1	inconclusive: -2.1%
CCN(CC)c1ccc(NC(=O)CSC(=O)c2ccccc2)cc1	inconclusive: -3.9%
CCCCOC(=O)CCCN1C(=O)/C(=C2\SC(=S)N(CCCC(=O)OCCCC)C2=O)SC1=S	active: 45.2%
CCC(=O)c1ccc(OCC(=O)OCC(=O)NCc2cccs2)cc1	inconclusive: -0.2%
Cc1ccccc1C(=O)NCC(c1ccco1)N1CCc2ccccc21 (stereo not given)	inconclusive: 1.5%
COc1ccc(S(=O)(=O)Nc2cc3c4c(oc3c3ccccc23)CC(C)(C)CC4=O)cc1	inconclusive: -32.7%
CC(C)CNS(=O)(=O)c1ccc(CCC(=O)NC2CCCCC2)cc1	active: 58.9%
COC(=O)Nc1ccc2c(c1)ncn2C1CCCCC1	inconclusive: -18.4%

Compound	inhibition
CN(C)c1ccc(/C=N/NC(=O)c2ccccn2)cc1	inactive: -6.8%
O=c1oc2c(O)cccc2cc1-c1nc2ccccc2[nH]1	inactive: -0.1%
Cc1ccsc1/C=C/C1=Cc2c(sc(NC(=O)CSc3n[nH]c(N)n3)c2C#N)C(C)(C)C1	active: 33.2%
COC(=O)C1CCN(C(=O)/C=C/c2ccc(OC)cc2)CC1	active: 35.1%
CC1=CC(C)(C)Nc2ccc(Cc3ccc4c(c3)C(C)=CC(C)(C)N4)cc21	inconclusive: -10.9%
CC(=O)Nc1ccc(NC(=O)c2ccc(-c3ccccc3Cl)o2)cc1	inconclusive: -3.3%
COc1ccc(/C=C/C(=O)NNC(=O)c2cc(C)oc2C)cc1	inconclusive: 1.4%
Cc1ccc(S(=O)(=O)Nc2cccc(C(=O)NCC(c3ccccc3)N(C)C)c2)cc1F (stereo not given)	inconclusive: -2.2%
Cn1nc([N+](=O)[O-])c2c(-c3nc4ccccc4s3)c(N)n(C3CCCCC3)c2c1=O	inconclusive: -1%
CC1CN(c2nc3c(c(=O)n(Cc4ccc(Cl)cc4)c(=O)n3C)n2C)CC(C)O1 (stereo not given)	inconclusive: -15.1%
CCN(CC)C(=O)C1=C(C)N(CCCN2CCCC2=O)C(=O)C(CC(=O)NC2CC2)C1 (stereo not given)	inactive: -0.8%
O=C(C[n+]1cc(Br)cc2ccccc21)c1ccc(Br)cc1	active: 45.3%
CC(=O)Cc1nsc(NC(=O)c2cn(-c3ccccc3)nc2-c2ccc(Br)cc2)n1	inconclusive: -13.4%
N#Cc1ccc(C(=O)N2CCCC(c3cc(C(=O)NCc4cccnc4)no3)C2)cc1 (stereo not given)	inactive: -7.8%
Cc1ccc(C2(C)NC(=O)N(CC(=O)NNC(=O)c3cc(C)oc3C)C2=O)cc1 (stereo not given)	inconclusive: -10.4%
Cc1ccccc1CCN(C(=O)c1csnn1)C(C(=O)NC1CCCC1)c1ccco1 (stereo not given)	inactive: 5.3%
C=CCC(Nc1ccccc1)c1cccc(OC)c1OC (stereo not given)	inconclusive: -26.3%
CN(CC(=O)NC(=O)NCc1ccccc1)CC(=O)Nc1ccc(Cl)c(C(F)(F)F)c1	inconclusive: 4.7%
COCCNC(=O)c1noc2c1CCc1cc(OC)ccc1-2	inactive: -0.9%
CCOC(=O)N1CCN(CCC(=O)Nc2cccc(Br)c2)CC1	inconclusive: 11.5%
Cc1cc(C)n(/N=C/c2c[nH]c3ccccc23)c(=O)c1	inconclusive: -8.1%
CCCn1c(SCC(=O)Nc2ccc3c(c2)OCCO3)n[nH]c1=O	inconclusive: -0.4%
CC(OC(=O)CCN=C1NS(=O)(=O)c2ccccc21)C(=O)Nc1ccc(F)c(F)c1F (stereo not given)	inconclusive: -1.4%

Compound	inhibition
CN(C)CCNc1ncnc2oc(-c3ccccc3)c(-c3ccccc3)c12	inactive: -11.3%
Cc1nnc(NC(=O)C(C)Sc2nnc(CNC(=O)c3ccccc3F)n2C)s1 (stereo not given)	inconclusive: -2.9%
O=C1NC(=O)C(CCc2ccncc2)(Cc2ccc3c(c2)OCO3)C(=O)N1CCc1ccccc1 (stereo not given)	inconclusive: 3.2%
CCN(CC)c1ccc2cc(-c3nc(-c4cc5ccccc5oc4=O)cs3)c(=O)oc2c1	active: 46.6%
CC(C)CNC(=O)c1cnn2c(C(F)(F)F)cc(C(F)(F)F)nc12	inconclusive: -20.4%
O=C(NC1CCCCC1)C(c1cccs1)N(CC1CCCO1)C(=O)c1csnn1 (stereo not given)	inconclusive: -39.4%
COC(=O)CCNC(=O)Cc1ccc(S(=O)(=O)N2CCCCC2)s1	inconclusive: 4.5%
Cc1c(NC(=O)c2cccc(NC(=O)Cc3ccc(F)cc3)c2)c(=O)n(-c2ccccc2)n1C	active: 43.7%
O=C(NO)c1cc(OCC(F)(F)F)ccc1OCC(F)(F)F	inconclusive: -5.9%
N#Cc1ccccc1COC(=O)CCC(=O)c1cccs1	inactive: -7.8%
COc1cc(C2c3cc4c(cc3CC3COC(=O)N32)OCO4)cc(OC)c1OC (stereo not given)	inactive: -6.1%
CCN(CC(=O)Nc1ccccc1C(F)(F)F)C(=O)c1ccccc1SCC(=O)N1CCCC1	inconclusive: -1.7%
CCOc1ccccc1CNCCO	inconclusive: -22%
Cn1ccnc1SCC(=O)NC1(C#N)CCCCC1	inconclusive: -5.7%
Nc1nc(-c2ccccn2)nc(N)c1Cc1c(F)cccc1Cl	inactive: -2.1%
CCOC(=O)NCc1ccc2c(c1)cc(C)n2C	active: 41.8%
O=C1/C(=C\c2ccco2)SC(=S)N1C1CCS(=O)(=O)C1 (stereo not given)	inconclusive: -8.6%
O=C(NC1CCCCC1)N1CCC(n2cnc3ccccc32)CC1	inactive: 8.9%
Cc1ccc(NC(=S)N(Cc2ccccc2)C(C)C)cc1	inconclusive: -17.5%
Cc1ccccc1OCC(=O)N/N=C1\CCOc2c(C)cccc21	inactive: -0.1%
COCC(C)NC(=O)C1CCN(S(=O)(=O)c2ccc3ccccc3c2)CC1 (stereo not given)	inconclusive: -5%
O=C(CNC(=O)c1ccc(Cl)cc1Cl)OCc1nnc(-c2ccccc2)o1	inconclusive: -2.8%
O=C(c1cc2ccccc2cc1O)N1CCN(c2ccc([N+](=O)[O-])cc2)CC1	inactive: -0.5%

Compound	inhibition
CCCCn1c(N)c(N(Cc2ccccc2OC)C(=O)COc2cc(C)ccc2Cl)c(=O)[nH]c1=O	inconclusive: 0.2%
O=C(Nc1ccccc1)c1ccccc1O	inconclusive: -9.6%
O=C(CN1C(=O)NC(c2ccc(F)cc2)C1=O)Nc1ccc2c(c1)OCCO2 (stereo not given)	inconclusive: 4.7%
Cn1cc(CCC(=O)NCc2ccc(Cl)cc2)c2ccccc21	inactive: 3.1%
O=C(NCc1ccncc1)C1CCCN(S(=O)(=O)c2cc(Cl)ccc2Cl)C1 (stereo not given)	inconclusive: -5%
CC(=O)c1ccc(NC(=O)/C(C#N)=C/c2ccncc2)cc1	inactive: 1.3%
CSc1ccccc1NC(=O)c1onc(C)c1Cl	inactive: 3.5%
CCCc1c(O)nc(SCCN(CCC)CCC)[nH]c1=O	inconclusive: -18.8%
CCOc1ccc(NC(=O)CN(C)C(=O)c2ccc3c(c2)S(=O)(=O)N=C2CCCCCN23)cc1OCC	active: 110%
CC(NC(=O)COC(=O)CSc1ccc(F)cc1)c1ccc(F)cc1 (stereo not given)	inconclusive: 3.5%
CCCCNc1c(-c2cc3ccccc3o2)nc2nc(C)cc(C)n12	inactive: -17.6%
COc1ccc(CNC(=O)COC(=O)c2n[nH]c3ccccc23)cc1OC	inconclusive: -4.4%
COCCCN(C(=O)c1cc(Cl)nc2ccccc12)c1c(N)n(Cc2ccccc2)c(=O)[nH]c1=O	inconclusive: 37.5%
COc1ccc(CN(CCC(c2ccccc2)c2ccc(OC(C)C)cc2)C(=O)CCl)cc1OC (stereo not given)	inactive: -1.2%
COc1cc(NC(=O)COc2ccc(-n3cnnn3)cc2)c(OC)cc1Cl	inconclusive: -11.8%
CCCN(CC(=O)Nc1ccccc1OC)C(=O)c1nc2nc(C)ccn2n1	inconclusive: -5%
CCc1cccc(C)c1NC(=O)c1cccnc1	active: 31.2%
O=C1c2cccc3c(O)ccc(c23)C(=O)N1Cc1ccccc1	active: 51%
COc1ccc(Cl)cc1NS(=O)(=O)c1cc(Cl)ccc1OC	inconclusive: -10%
O=C(CN1C(=O)CSc2ccccc21)NC1CCCC1	inactive: -0.6%
S=C(NCCCN1CCOCC1)Nc1ccc(Nc2ccccc2)cc1	inactive: 2.8%
